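Five concentrations, 48 hours, 96-well plates. GI50 = concentration required for 50% inhibition of growth.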 Activity calls are given as the source filed them. No stated cut-off is given here; in the data, active = GI50 up to about 1.1 µM and inactive = higher.
These molecules were tested on NCI-H322M (assay: NCI-60 cell line screen, 48 h).

Row | SMILES | GI50
1 | O=C1C(Cl)=C(Sc2nnc3c4ccccc4c4ccccc4c3n2)C(=O)c2ccccc21 | inactive: 15.7 µM
2 | CCOC(=O)Nc1ccc(S(=O)(=O)Nn2cnnc2)cc1 | inactive: > 100 µM
3 | O=C(Nc1cccc2nsnc12)c1cc2c(cc1Cl)Sc1nccn1S2(=O)=O | inactive: 2.58 µM
4 | COc1ccc(-c2cc(O)c3cc4c(cc3n2)OCO4)cc1 | inactive: > 100 µM
5 | COc1ccc2[nH]c3c4c(ccc3c2c1)C(=O)C=CC4=O | inactive: 29.6 µM
6 | N=C(N)N/N=C/c1c(-c2ccc(Cl)c([N+](=O)[O-])c2)nc2sc(Cl)cn12 | inactive: 3.39 µM
7 | Nc1nc(Cl)cc(NCC2(CO)CC(CCc3ccccc3)C2)n1 (configuration not stated) | inactive: > 100 µM
8 | O=C1Nc2ccccc2[C@]12C[C@H]2c1ccccn1 | inactive: > 100 µM
9 | CCNc1nc2c(ncn2C2CC(O)C(COP(=O)(O)O)O2)c(=O)[nH]1 (configuration not stated) | inactive: > 100 µM
10 | CN1C(=O)N(C)C2(CCN(CC(CC3OCCO3)c3ccc(F)cc3)CC2)C1=O (configuration not stated) | inactive: > 100 µM
11 | C=C(C)C(=O)OC1C/C(CO)=C\C(O)C/C(C)=C/C2OC(=O)C(=C)C21 (configuration not stated) | inactive: 24.2 µM
12 | Cc1c(C)c2c(c(N)c1C#N)C(=O)N(CCc1ccccc1)C2=O | inactive: > 100 µM
13 | C/N=c1\ss/c(=N\C(=S)N(C)C)n1C1CCCCC1 | inactive: > 31.6 µM
14 | CCC1(CCSC(=N)N)C(=O)NC(=O)NC1=O | inactive: > 100 µM
15 | O=c1[nH]c2cc([N+](=O)[O-])ccc2nc1/C(=N\NO)C(O)c1ccc([N+](=O)[O-])cc1 (configuration not stated) | inactive: 97.9 µM
16 | Cc1[nH]c2ccccc2c1C1Cc2ccccc2N1C(=O)C#Cc1ccc([N+](=O)[O-])cc1 (configuration not stated) | inactive: > 100 µM
17 | COc1ccc(-c2c(-c3ccccc3)c(C)c3ccccn23)cc1 | inactive: > 100 µM
18 | O=C(O)CN(CC(=O)O)C1CCCCC1N1CC(=O)OC(=O)C1 (configuration not stated) | inactive: > 100 µM
19 | CC(C)NC(=O)OCc1c(COC(=O)NC(C)C)c(-c2ccc[n+](COC(=O)C3CCCCC3)c2)n2c1CCC2 | inactive: 76.2 µM
20 | O=C(Cn1c(=O)oc2ccc(C(=O)c3ccc(F)cc3)cc21)c1ccccc1 | inactive: > 100 µM
21 | N#C/C(=C1\SC(C(N)=O)=C(N)N1c1ccccc1)c1nc2ccccc2[nH]1 | inactive: > 100 µM

Row | SMILES | GI50
22 | CC1=C(C(=O)OCCc2ccc([N+](=O)[O-])cc2)C(c2cccc([N+](=O)[O-])c2)C(C(=O)OC(C)C)=C(C)N1 (configuration not stated) | inactive: > 100 µM
23 | CC(=O)OCCOCNC(=S)N/N=C(\C)c1cnc2ccccc2n1 | inactive: 25.1 µM
24 | Cc1ccc(S(=O)(=O)C(C#N)c2nc3ccccc3nc2-n2cccn2)cc1 (configuration not stated) | inactive: > 100 µM
25 | c1ccc2c(c1)CN1CCCC1CN2 (configuration not stated) | inactive: > 100 µM
26 | c1csc(-c2ccc(-c3ccsc3)s2)c1 | inactive: > 100 µM
27 | CC1(C)CC(=O)C2=C(C1)NC1=C(C(=O)CC(C)(C)C1)C2c1ccc([N+](=O)[O-])cc1 | inactive: > 100 µM
28 | CC1OC(OC2C(OC(=O)[C@]34CCC(C)(C)C[C@H]3C3=CC[C@@H]5[C@@]6(C)CC[C@H](OC7OC(CO)C(O)C(O)C7OC7OC(CO)C(O)C(O)C7O)C(C)(C)[C@@H]6CC[C@@]5(C)[C@]3(C)CC4)OCC(O)C2O)C(O)C(OC2OCC(O)C(O)C2O)C1OC1OCC(O)C(OC2OCC(O)C(O)C2O)C1O (some centres not stated) | inactive: 6.21 µM
29 | CC1=NN(c2cccc(Cl)c2)C2(SCC(=O)N2c2nc3ccccc3s2)/C1=C\c1ccc(Cl)cc1 (configuration not stated) | inactive: 29.8 µM
30 | COC1(OC)CCC2C1C1CCC(OC)(OC)C21 (configuration not stated) | inactive: > 50 µM
31 | Cc1cc(C)nc(NS(=O)(=O)c2ccc(NNc3c4ccccc4nc4c(C(=O)Nc5ccc(S(=O)(=O)Nc6cc(C)on6)cc5)cccc34)cc2)n1 | inactive: 38.8 µM
32 | CC[C@@H]1CC[C@@H]2[C@H](CC[C@]3(C)[C@@H](O)CC[C@@H]23)[C@H]1CO | inactive: > 100 µM
33 | Cc1c(-c2ccccc2)c(C#N)c2nnn(-c3cccc(Cl)c3)c(=O)n12 | inactive: 78.5 µM
34 | CC(C)(C)c1cc(C(=O)/C=C/c2ccc3c(c2)OCO3)cc(C(C)(C)C)c1O | inactive: 12.3 µM
35 | COc1cccc(Nc2nc(N)nc(N)c2N)c1 | inactive: > 100 µM
36 | O=C1C[C@@H](c2ccccc2)O[C@@H](c2ccccc2)C1 | inactive: > 100 µM
37 | CN1CC[C@@]2(c3cccc(O)c3)CC(=O)/C(=C/c3ccccc3)[C@H]1C2.[O-][Cl+3]([O-])([O-])O | inactive: 14.5 µM
38 | CC1(C)OC(=O)C(c2ccsc2)C(=O)O1 | inactive: > 100 µM
39 | COC(=O)CCC(=O)c1ccc2c(c1)CC1(C2)Cc2ccc3c(c2C1)CCCC3=O (configuration not stated) | inactive: > 67.5 µM
40 | COc1ccc(/N=C2\C(=S)N(c3ccc(OC)cc3)/C(=N/S(=O)(=O)c3ccccc3)N2c2ccccc2)cc1 | inactive: > 56.9 µM
41 | CCOc1cc2c(cc1O)C(O)C[C@@H]1[C@@H]2CC[C@]2(C)[C@@H](O)CC[C@@H]12 (some centres not stated) | active: 0.845 µM
42 | Nc1ccn(CCO)c(=O)n1 | inactive: > 100 µM

Row | SMILES | GI50
43 | COc1ccc(C2C3CCc4ccccc4C3=NN2S(=O)(=O)c2cccc(C(=O)O)c2OC)cc1 (configuration not stated) | inactive: 32.4 µM
44 | CC(=O)/N=S(/NC(=O)c1ccc(C)cc1)C(Cl)(Cl)Cl (configuration not stated) | inactive: > 100 µM
45 | Cc1c(F)c(N)c2c(=O)cc(-c3ccc(NC(=O)CN(C)C)c(F)c3)oc2c1F | inactive: > 100 µM
46 | COc1ccc(/C=C/C(=O)NCC(NC(=O)/C=C/c2ccc(OC)c(OC)c2)C(=O)O)cc1OC (configuration not stated) | inactive: > 100 µM
47 | COc1oc(C2C/C(=C/C(C)=C/C(C)=C/C(C)=C/c3ccc([N+](=O)[O-])cc3)CO2)c(C)c(=O)c1C (configuration not stated) | inactive: 23.6 µM
48 | c1ccc(CNc2ncnc3nn[nH]c23)cc1 | inactive: > 100 µM
49 | O=C(O)CN1CCN(CC(=O)O)CCN(CC(=O)O)CC1 | inactive: > 100 µM
50 | CCCCCCOP(=O)(OCCCCCC)C(NC(=O)OCC)(C(F)(F)F)C(F)(F)F | inactive: > 100 µM
51 | COc1ccc(C2CC(=O)CC(c3ccc(OC)cc3)C23C(=O)NC(=S)NC3=O)cc1 (configuration not stated) | inactive: > 100 µM
52 | O=C(O)Cc1cccc2c1OC(c1ccccc1)C(Cl)(C(=O)c1ccccc1)C2=O (configuration not stated) | inactive: 21.3 µM
53 | O=C1C=C(Br)c2c(Br)sc(Br)c21 | inactive: 20.7 µM
54 | C=CCC1OC(C)(C)Oc2ccc(OCOCCOC)cc21 (configuration not stated) | inactive: > 100 µM
55 | O=c1[nH]c2ccc(C(F)(F)F)cc2nc1-c1ccccc1 | inactive: > 100 µM
56 | COc1cc(/C=[N+](\[O-])c2ccccc2Cl)ccc1OC(=S)S | inactive: 68.5 µM
57 | CC(NNC(=O)c1cc[n+]([BH2-]C#N)cc1)c1ccc(Cl)c(Cl)c1 (configuration not stated) | inactive: 32.1 µM
58 | COc1cc(C2c3cc4c(cc3[C@@H](Nc3ccccc3)C3COC(=O)[C@H]23)OCO4)cc(OC)c1O (some centres not stated) | inactive: 5.24 µM
59 | CC(=O)Oc1ccc(/C=C/C(=O)O[C@@H](C)[C@H](C)OC(=O)/C=C/c2ccc(OC(C)=O)c(OC(C)=O)c2)cc1OC(C)=O | inactive: 18 µM
60 | O=C(c1ccc(O)cc1O)C1C(c2ccc(O)cc2)OC(c2ccc(O)cc2)C1C(=O)c1ccc(O)cc1O (configuration not stated) | inactive: 10.8 µM
61 | Cn1c(=O)nc2n(-c3ccc(F)c(F)c3)c3ccccc3nc-2c1=O | inactive: 19.1 µM
62 | NC(=O)CC[C@H]1C(=O)N=C(N)N1C(=O)OCc1ccccc1 | inactive: > 100 µM

Source: ChEMBL document CHEMBL1201862, “PubChem BioAssay data set” (2004)
